Source: the supplement of paper PMC11876631
± gives the standard deviation of the averaged measurements. Laboratory Escherichia coli strains with one amino-acid change in an essential protein, pooled on minimal glucose agar with carbenicillin or gentamicin at twice the control MIC (plus kanamycin and chloramphenicol for the plasmids), 48 h. Fold change of barcode share against drug-free plates; higher = less susceptible. Active = above 20 in both replicates (the paper's putatively resistant). '<' = one read or none on drug, '>' = one read or none on a drug-free plate. Shares are relative, so most strains fall below 1 when a few take over. Listed are strains with at least 15 reads on both drug-free plates, and hits; most hits rest on fewer reference reads. Replicate rank correlation about 0.5. Edits are read from barcodes.

B1: lipA I22A (protein)
chain: MSKPIVMERGVKYRDADKMALAPVKNVATEREALLRKPEWMKIKLPADSTRIQGIKAAMRKNGLHSVCEEASCPNLAECFNHGTATFMILGAICTRRCPFCDVAHGRPVAPDANEPVKLAQTIADMALRYVVITSVDRDDLRDGGAQHFADCITAIREKSPQIKIETLVPDFRGRMDRALDILTATPPDVFNHNLENVPRIYRQVRPGADYNWSLKLLERFKEAHPEIPTKSGLMVGLGETNEEIIEVMRDLRRHGVTMLTLGQYLQPSRHHLPVQRYVSPDEFDEMKAEALAMGFTHAACGPFVRSSYHADLQAKGMEVK
B2: lipA I22W (protein)
chain: MSKPIVMERGVKYRDADKMALWPVKNVATEREALLRKPEWMKIKLPADSTRIQGIKAAMRKNGLHSVCEEASCPNLAECFNHGTATFMILGAICTRRCPFCDVAHGRPVAPDANEPVKLAQTIADMALRYVVITSVDRDDLRDGGAQHFADCITAIREKSPQIKIETLVPDFRGRMDRALDILTATPPDVFNHNLENVPRIYRQVRPGADYNWSLKLLERFKEAHPEIPTKSGLMVGLGETNEEIIEVMRDLRRHGVTMLTLGQYLQPSRHHLPVQRYVSPDEFDEMKAEALAMGFTHAACGPFVRSSYHADLQAKGMEVK
B3: ligA I289Q (protein)
chain: MESIEQQLTELRTTLRHHEYLYHVMDAPEIPDAEYDRLMRELRELETKHPELITPDSPTQRVGAAPLAAFSQIRHEVPMLSLDNVFDEESFLAFNKRVQDRLKNNEKVTWCCELKLDGLAVSILYENGVLVSAATRGDGTTGEDITSNVRTIRAIPLKLHGENIPARLEVRGEVFLPQAGFEKINEDARRTGGKVFANPRNAAAGSLRQLDPRITAKRPLTFFCYGVGVLEGGELPDTHLGRLLQFKKWGLPVSDRVTLCESAEEVLAFYHKVEEDRPTLGFDIDGVVQKVNSLAQQEQLGFVARAPRWAVAFKFPAQEQMTFVRDVEFQVGRTGAITPVARLEPVHVAGVLVSNATLHNADEIERLGLRIGDKVVIRRAGDVIPQVVNVVLSERPEDTREVVFPTHCPVCGSDVERVEGEAVARCTGGLICGAQRKESLKHFVSRRAMDVDGMGDKIIDQLVEKEYVHTPADLFKLTAGKLTGLERMGPKSAQNVVNALEKAKETTFARFLYALGIREVGEATAAGLAAYFGTLEALEAASIEELQKVPDVGIVVASHVHNFFAEESNRNVISELLAEGVHWPAPIVINAEEIDSPFAGKTVVLTGSLSQMSRDDAKARLVELGAKVAGSVSKKTDLVIAGEAAGSKLAKAQELGIEVIDEAEMLRLLGS
B4: ligA V121A (protein)
chain: MESIEQQLTELRTTLRHHEYLYHVMDAPEIPDAEYDRLMRELRELETKHPELITPDSPTQRVGAAPLAAFSQIRHEVPMLSLDNVFDEESFLAFNKRVQDRLKNNEKVTWCCELKLDGLAASILYENGVLVSAATRGDGTTGEDITSNVRTIRAIPLKLHGENIPARLEVRGEVFLPQAGFEKINEDARRTGGKVFANPRNAAAGSLRQLDPRITAKRPLTFFCYGVGVLEGGELPDTHLGRLLQFKKWGLPVSDRVTLCESAEEVLAFYHKVEEDRPTLGFDIDGVVIKVNSLAQQEQLGFVARAPRWAVAFKFPAQEQMTFVRDVEFQVGRTGAITPVARLEPVHVAGVLVSNATLHNADEIERLGLRIGDKVVIRRAGDVIPQVVNVVLSERPEDTREVVFPTHCPVCGSDVERVEGEAVARCTGGLICGAQRKESLKHFVSRRAMDVDGMGDKIIDQLVEKEYVHTPADLFKLTAGKLTGLERMGPKSAQNVVNALEKAKETTFARFLYALGIREVGEATAAGLAAYFGTLEALEAASIEELQKVPDVGIVVASHVHNFFAEESNRNVISELLAEGVHWPAPIVINAEEIDSPFAGKTVVLTGSLSQMSRDDAKARLVELGAKVAGSVSKKTDLVIAGEAAGSKLAKAQELGIEVIDEAEMLRLLGS
B5: ligA V353P (protein)
chain: MESIEQQLTELRTTLRHHEYLYHVMDAPEIPDAEYDRLMRELRELETKHPELITPDSPTQRVGAAPLAAFSQIRHEVPMLSLDNVFDEESFLAFNKRVQDRLKNNEKVTWCCELKLDGLAVSILYENGVLVSAATRGDGTTGEDITSNVRTIRAIPLKLHGENIPARLEVRGEVFLPQAGFEKINEDARRTGGKVFANPRNAAAGSLRQLDPRITAKRPLTFFCYGVGVLEGGELPDTHLGRLLQFKKWGLPVSDRVTLCESAEEVLAFYHKVEEDRPTLGFDIDGVVIKVNSLAQQEQLGFVARAPRWAVAFKFPAQEQMTFVRDVEFQVGRTGAITPVARLEPVHVAGVLPSNATLHNADEIERLGLRIGDKVVIRRAGDVIPQVVNVVLSERPEDTREVVFPTHCPVCGSDVERVEGEAVARCTGGLICGAQRKESLKHFVSRRAMDVDGMGDKIIDQLVEKEYVHTPADLFKLTAGKLTGLERMGPKSAQNVVNALEKAKETTFARFLYALGIREVGEATAAGLAAYFGTLEALEAASIEELQKVPDVGIVVASHVHNFFAEESNRNVISELLAEGVHWPAPIVINAEEIDSPFAGKTVVLTGSLSQMSRDDAKARLVELGAKVAGSVSKKTDLVIAGEAAGSKLAKAQELGIEVIDEAEMLRLLGS
B6: ligA L512A (protein)
chain: MESIEQQLTELRTTLRHHEYLYHVMDAPEIPDAEYDRLMRELRELETKHPELITPDSPTQRVGAAPLAAFSQIRHEVPMLSLDNVFDEESFLAFNKRVQDRLKNNEKVTWCCELKLDGLAVSILYENGVLVSAATRGDGTTGEDITSNVRTIRAIPLKLHGENIPARLEVRGEVFLPQAGFEKINEDARRTGGKVFANPRNAAAGSLRQLDPRITAKRPLTFFCYGVGVLEGGELPDTHLGRLLQFKKWGLPVSDRVTLCESAEEVLAFYHKVEEDRPTLGFDIDGVVIKVNSLAQQEQLGFVARAPRWAVAFKFPAQEQMTFVRDVEFQVGRTGAITPVARLEPVHVAGVLVSNATLHNADEIERLGLRIGDKVVIRRAGDVIPQVVNVVLSERPEDTREVVFPTHCPVCGSDVERVEGEAVARCTGGLICGAQRKESLKHFVSRRAMDVDGMGDKIIDQLVEKEYVHTPADLFKLTAGKLTGLERMGPKSAQNVVNALEKAKETTFARFAYALGIREVGEATAAGLAAYFGTLEALEAASIEELQKVPDVGIVVASHVHNFFAEESNRNVISELLAEGVHWPAPIVINAEEIDSPFAGKTVVLTGSLSQMSRDDAKARLVELGAKVAGSVSKKTDLVIAGEAAGSKLAKAQELGIEVIDEAEMLRLLGS
B7: ligA I289P (protein)
chain: MESIEQQLTELRTTLRHHEYLYHVMDAPEIPDAEYDRLMRELRELETKHPELITPDSPTQRVGAAPLAAFSQIRHEVPMLSLDNVFDEESFLAFNKRVQDRLKNNEKVTWCCELKLDGLAVSILYENGVLVSAATRGDGTTGEDITSNVRTIRAIPLKLHGENIPARLEVRGEVFLPQAGFEKINEDARRTGGKVFANPRNAAAGSLRQLDPRITAKRPLTFFCYGVGVLEGGELPDTHLGRLLQFKKWGLPVSDRVTLCESAEEVLAFYHKVEEDRPTLGFDIDGVVPKVNSLAQQEQLGFVARAPRWAVAFKFPAQEQMTFVRDVEFQVGRTGAITPVARLEPVHVAGVLVSNATLHNADEIERLGLRIGDKVVIRRAGDVIPQVVNVVLSERPEDTREVVFPTHCPVCGSDVERVEGEAVARCTGGLICGAQRKESLKHFVSRRAMDVDGMGDKIIDQLVEKEYVHTPADLFKLTAGKLTGLERMGPKSAQNVVNALEKAKETTFARFLYALGIREVGEATAAGLAAYFGTLEALEAASIEELQKVPDVGIVVASHVHNFFAEESNRNVISELLAEGVHWPAPIVINAEEIDSPFAGKTVVLTGSLSQMSRDDAKARLVELGAKVAGSVSKKTDLVIAGEAAGSKLAKAQELGIEVIDEAEMLRLLGS
B8: ligA L512Q (protein)
chain: MESIEQQLTELRTTLRHHEYLYHVMDAPEIPDAEYDRLMRELRELETKHPELITPDSPTQRVGAAPLAAFSQIRHEVPMLSLDNVFDEESFLAFNKRVQDRLKNNEKVTWCCELKLDGLAVSILYENGVLVSAATRGDGTTGEDITSNVRTIRAIPLKLHGENIPARLEVRGEVFLPQAGFEKINEDARRTGGKVFANPRNAAAGSLRQLDPRITAKRPLTFFCYGVGVLEGGELPDTHLGRLLQFKKWGLPVSDRVTLCESAEEVLAFYHKVEEDRPTLGFDIDGVVIKVNSLAQQEQLGFVARAPRWAVAFKFPAQEQMTFVRDVEFQVGRTGAITPVARLEPVHVAGVLVSNATLHNADEIERLGLRIGDKVVIRRAGDVIPQVVNVVLSERPEDTREVVFPTHCPVCGSDVERVEGEAVARCTGGLICGAQRKESLKHFVSRRAMDVDGMGDKIIDQLVEKEYVHTPADLFKLTAGKLTGLERMGPKSAQNVVNALEKAKETTFARFQYALGIREVGEATAAGLAAYFGTLEALEAASIEELQKVPDVGIVVASHVHNFFAEESNRNVISELLAEGVHWPAPIVINAEEIDSPFAGKTVVLTGSLSQMSRDDAKARLVELGAKVAGSVSKKTDLVIAGEAAGSKLAKAQELGIEVIDEAEMLRLLGS
B9: ligA L512W (protein)
chain: MESIEQQLTELRTTLRHHEYLYHVMDAPEIPDAEYDRLMRELRELETKHPELITPDSPTQRVGAAPLAAFSQIRHEVPMLSLDNVFDEESFLAFNKRVQDRLKNNEKVTWCCELKLDGLAVSILYENGVLVSAATRGDGTTGEDITSNVRTIRAIPLKLHGENIPARLEVRGEVFLPQAGFEKINEDARRTGGKVFANPRNAAAGSLRQLDPRITAKRPLTFFCYGVGVLEGGELPDTHLGRLLQFKKWGLPVSDRVTLCESAEEVLAFYHKVEEDRPTLGFDIDGVVIKVNSLAQQEQLGFVARAPRWAVAFKFPAQEQMTFVRDVEFQVGRTGAITPVARLEPVHVAGVLVSNATLHNADEIERLGLRIGDKVVIRRAGDVIPQVVNVVLSERPEDTREVVFPTHCPVCGSDVERVEGEAVARCTGGLICGAQRKESLKHFVSRRAMDVDGMGDKIIDQLVEKEYVHTPADLFKLTAGKLTGLERMGPKSAQNVVNALEKAKETTFARFWYALGIREVGEATAAGLAAYFGTLEALEAASIEELQKVPDVGIVVASHVHNFFAEESNRNVISELLAEGVHWPAPIVINAEEIDSPFAGKTVVLTGSLSQMSRDDAKARLVELGAKVAGSVSKKTDLVIAGEAAGSKLAKAQELGIEVIDEAEMLRLLGS

Target: Escherichia coli (laboratory strain)
Assay: barcode share on antibiotic plates over drug-free plates; higher = less susceptible
Conditions: antibiotic: carbenicillin; 2× MIC (3.1 µg/mL)
Procedure: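 A pool of E. coli strains, each edited to carry one amino-acid change in an essential protein, was grown for 48 h on minimal glucose agar with or without antibiotic; strain barcodes were sequenced; mean of two replicates.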

Protein	fold change of barcode share
B1	0.502 ± 0.13
B2	0.495 ± 0.019
B3	0.365 ± 0.064
B4	0.274 ± 0.045
B5	0.3569 ± 0.002
B6	0.368 ± 0.13
B7	0.278 ± 0.06
B8	0.358 ± 0.082
B9	0.294 ± 0.041

Same assay, conditions: antibiotic: gentamicin; 2× MIC (MIC 0.45 µg/mL)

Protein	fold change of barcode share
B1	26.2 ± 31
B2	21.3 ± 25
B3	< 0.0145
B4	< 0.00394
B6	0.0154 ± 0.017
B7	< 0.0171
B8	< 0.00894
B9	< 0.00907
